In the supplement of paper PMC3334620:
Whole data set: some 33,000 sequences, median “E-score (-0.5 to 0.5)” near -0.016, cut for the highest 2% near 0.32. This is one part of the list.

biological target: T1, Stp1 (UniProt B3LFK1); experiment: PBM E-score (8-mer binding enrichment) (E-score (-0.5 to 0.5)); higher = stronger / more preferred TF binding; most listed sequences are background and not binding sites; settings: protein concentration: 200 nM; construct: GST-full length
T1 sequence: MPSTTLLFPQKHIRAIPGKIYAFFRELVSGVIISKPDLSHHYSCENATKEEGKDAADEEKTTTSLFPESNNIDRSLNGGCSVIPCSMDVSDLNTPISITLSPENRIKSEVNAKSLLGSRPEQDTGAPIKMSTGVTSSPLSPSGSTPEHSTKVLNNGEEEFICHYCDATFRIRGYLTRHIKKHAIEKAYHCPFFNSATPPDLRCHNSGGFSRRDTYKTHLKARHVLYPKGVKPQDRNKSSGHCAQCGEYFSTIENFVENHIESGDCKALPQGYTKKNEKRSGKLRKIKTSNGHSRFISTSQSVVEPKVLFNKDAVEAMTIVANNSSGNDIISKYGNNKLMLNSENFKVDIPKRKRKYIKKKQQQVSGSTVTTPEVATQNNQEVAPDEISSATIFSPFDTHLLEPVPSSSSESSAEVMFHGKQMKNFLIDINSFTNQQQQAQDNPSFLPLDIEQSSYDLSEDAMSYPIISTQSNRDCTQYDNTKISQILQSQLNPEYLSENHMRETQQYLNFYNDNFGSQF
Description: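 Universal 'all 10-mer' protein binding microarrays (Agilent AMADID 015681) probed with GST-tagged S. cerevisiae TFs (full-length or DBD) made by in vitro transcription/translation (PURExpress), about 100-200 nM. Bound TF was detected with fluorescent anti-GST. Each ungapped 8-mer (which stands for itself and its reverse complement) is scored by the PBM enrichment score (E-score), a modified Wilcoxon-Mann-Whitney statistic from -0.5 to +0.5, computed with the Universal PBM Analysis Suite. Scale: above 0.35 generally sequence-specific binding.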

Sequence	PBM E-score
ATTTCACA	0.109
ATTCTGAG	-0.0737
TATTGTCA	0.127
ACATGCCT	0.066
CATCTTCG	-0.0797
GTCACTGA	-0.0907
AATTCCGA	-0.0617
AGATCTGG	-0.104
GGCAACAA	0.309
AGAGATTC	-0.0324
ACACGAAA	0.0839
ACGGTGCG	0.173
GTCAATTA	0.106
TAGTTATA	0.0803
GAGATCCA	-0.0824
GACAATGC	0.126
CGCGATCC	-0.0162
GGCTGCCA	0.0727
CCCCGTAC	0.0216
AACGGAGC	0.0361
ACTCCCGG	-0.187
CAGATGTC	-0.15
AAGTCACT	0.0121
CACACGTC	-0.0138
AATACTAG	0.0884

Sequence	PBM E-score
CGACCAAC	-0.0193
GGGAACAC	-0.0624
AAGATCTC	-0.23
CTCTACCC	-0.236
CTTTAAGC	0.0759
CTCGATCC	-0.0198
ACGGGGCC	-0.0286
ATGACAGC	0.0104
GAGGAAGC	-0.226
GATGGAGA	-0.00272
CCTCCCTA	-0.28
CTCAGCTC	-0.0878
TATTTCGA	0.241
AACCAACG	-0.0438
GGTGGTAC	-0.289
TCATCAGA	-0.0331
ACCCATGC	-0.167
AGACACCG	-0.131
CACTTCAC	-0.0796
AGCGCAAC	-0.0708
CGGATTGC	3e-05
AAGTCAAG	-0.236
CTTTGAAC	-0.0989
TCAAACAA	0.211
CCATTCCG	0.0745

Sequence	PBM E-score
ATGTTCTG	-0.167
CAGTCTGA	-0.0528
GGACCTCC	-0.241
ATTCTCCC	-0.0193
CGGTCGAA	0.0265
GCATTAGC	-0.109
ATTAAGAA	0.148
GAGAAATA	0.223
AATAAGGC	0.231
ATCCAGAA	0.0804
ACAGAGTA	0.107
GGGTACCA	-0.242
ATCGCCTA	-0.111
TACCTTAA	0.0917
ACGTTTTA	0.153
GACTATAC	-0.0187
ACAGAGCT	-0.189
CCGGGGGC	-0.393
CCGTATAA	0.341
CAGTCAGA	-0.257
CCCTGCCA	-0.0377
CCAGGCAG	-0.133
AAATCGTT	0.0207
CACCCCAA	-0.106
CCCGTTTA	0.185

Sequence	PBM E-score
ACAAATAG	0.185
AGTGGGCC	-0.14
GTTGGGCA	0.0977
CTTGCCAC	0.0727
AGTGCTTA	-0.0234
GGTCTATA	-0.0214
GCCTTTAC	0.108
AATACACT	0.18
GGTATTGA	-0.176
AAGTAGGT	-0.121
ATTTTAAA	0.315
CTCCTATC	-0.163
ATGCGGGA	0.0997
GTGTAAAA	0.0522
GGAGAGTA	-0.237
TCTTAGAA	0.237
CACTTATA	0.096
ACTGCAAG	-0.127
CCAGAGTA	0.0185
CTGCCAGC	-0.204
CGACTTCA	0.0659
ACACACTG	-0.0947
ACAATACG	0.182
ACCATCGC	0.115
ACTTTTGA	0.172

Sequence	PBM E-score
AGAGATCG	-0.0111
AACCGCTC	-0.05
AGAAGCAA	0.15
CACAAGTA	-0.14
CCCAACCG	-0.153
AGGATTGG	-0.116
CCGAGGAA	0.00772
ACGTGTCT	-0.0762
GCCTCGCA	0.244
AATCCACT	0.0601
CTAAGGCC	0.121
CATGTAAG	0.0893
AAAAGAGA	-0.0234
AATTATAC	0.0912
ACGGTAGA	-0.0955
CGGATGAG	-0.185
AGACAACG	0.0214
ATGCCGGG	-0.0642
TCAGCTGA	-0.0803
ACCATCCG	-0.144
ACTTTGCG	-0.019
ATGAGCAG	-0.0299
ACCCATCG	-0.25
CCTACACA	0.0469
CCACTTTA	-0.0965

Sequence	PBM E-score
CCCTAACG	-0.0628
AAACCGAA	-0.0599
CCAAATTA	0.0605
GCGTGTTA	0.0756
AACATCCG	0.0587
GTTGCTTA	0.0905
CGAGTTTA	-0.0253
AACTTTGC	0.0511
ACTTCATA	0.14
CACGGATA	0.295
ACAGTGCA	-0.101
AAAGTGCC	0.201
CATTGTTC	0.132
GCTATTGA	-0.053
AATAGCCG	0.284
GCGTGATA	0.0872
CAATGACC	-0.131
ACACATAT	0.158
CACTAAGG	0.0993
CTGAGGTA	-0.0424
GGCCCACC	-0.113
ATCAATGA	0.161
AGACCCCT	-0.301
ATTCTTGG	0.147
ATTAAACC	0.00574

Sequence	PBM E-score
ACGGGCCC	-0.192
CGGACGAA	0.183
GGACTTGA	-0.279
GCGCTCCA	-0.0886
GACCCGCA	-0.066
CCTACTCC	-0.156
GAGGGGAA	-0.137
ACGTACTA	-0.0376
CGATTCTC	-0.0736
CAGCGCGG	0.211
ATCGTCGC	0.124
CGACACTC	0.00026
GACAATAA	0.186
CTAGTAAC	-0.106
ATCCTCCG	-0.299
GAATCTCC	-0.122
CCCTTCTC	-0.259
CGCATCGC	-0.027
CCGAAAGA	0.00631
CTTGTGTA	0.0858
ACCTCCTC	-0.155
CCTACGAA	0.08
